Assay results: the supplement of paper PMC3334620
The full ranking holds about 33,000 sequences; the median of “E-score (-0.5 to 0.5)” is about -0.04, and the highest 2% start at about 0.36. This is one part of the list.

Target: T1, Hmlalpha2 (UniProt P0CY09)
T1 sequence: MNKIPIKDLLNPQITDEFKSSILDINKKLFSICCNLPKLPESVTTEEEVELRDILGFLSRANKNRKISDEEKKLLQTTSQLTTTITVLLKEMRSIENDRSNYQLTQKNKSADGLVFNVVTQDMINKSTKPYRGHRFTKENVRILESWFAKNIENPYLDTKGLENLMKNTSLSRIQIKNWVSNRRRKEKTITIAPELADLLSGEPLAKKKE
Experiment: PBM E-score (8-mer binding enrichment) (E-score (-0.5 to 0.5)); higher = stronger / more preferred TF binding; most listed sequences are background and not binding sites
Settings: protein concentration: 200 nM; construct: GST-full length
Procedure, shortened: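 Using PURExpress in vitro transcription/translation, GST-tagged yeast transcription factors were made in full-length or DNA-binding-domain form. These were applied at about 100-200 nM to double-stranded universal all-10-mer Agilent arrays, and bound protein was detected with fluorescent anti-GST. Scans were normalised with masliner before the Universal PBM Analysis Suite assigned E-scores to ungapped eight-base words pooled with their reverse complements.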

Row | Sequence | PBM E-score
1 | AACCCCCA | -0.223
2 | AGAGTGAA | 0.14
3 | ACGACCAC | 0.133
4 | AGAGGCGC | -0.201
5 | ACGCCCCT | 0.0821
6 | GGCTAGAA | -0.222
7 | CTAACAAG | 0.175
8 | ACGTTCCT | 0.245
9 | ACCAAGAG | -0.161
10 | GGAATACA | 0.431
11 | CGGCGCCC | -0.0686
12 | GAGCTCAA | 0.0498
13 | CGGCTCTC | -0.295
14 | AGCGGATA | -0.329
15 | ATCGGGGA | 0.0745
16 | CTTTGGGA | -0.248
17 | AGGATCCT | -0.168
18 | CTGTACAG | 0.0499
19 | CCCCACAA | -0.248
20 | ACATTACG | 0.336
21 | ATGCTTGC | -0.201
22 | GCAACAAA | 0.154
23 | CGAAGCTA | 0.101
24 | CCGACAGA | -0.0555
25 | CGCCTCTA | -0.0968

Row | Sequence | PBM E-score
26 | GAACGCCC | -0.287
27 | GCCTAAGC | -0.107
28 | ACTGGAAG | -0.153
29 | ACGAGCGC | -0.13
30 | AATTTGGC | 0.0265
31 | ATGTGATA | 0.299
32 | AATTACGT | 0.382
33 | ATCCCCCA | -0.389
34 | GCATTACC | 8e-05
35 | CAGCAGTA | -0.0173
36 | CAGCTCTC | -0.149
37 | TAGGACTA | -0.116
38 | AAATCTTG | 0.166
39 | AAGACGGG | -0.233
40 | AGACGGAC | -0.168
41 | GACCGTAA | -0.145
42 | CACAATAG | 0.115
43 | TAGCATAA | 0.0211
44 | GGCCGGAA | -0.354
45 | AACGTCGA | 0.218
46 | CAAACGTG | 0.192
47 | ACATATGG | 0.104
48 | CTACAACC | 0.153
49 | GGCGCAGA | -0.231
50 | ACGGTAGC | 0.0743

Row | Sequence | PBM E-score
51 | CTCGCTTC | -0.274
52 | CCATTGTC | -0.142
53 | AAGTGCGG | -0.0262
54 | AGCCGTAG | -0.0781
55 | ATTGGGGG | -0.294
56 | ACAATAGA | 0.202
57 | ACATGTTC | 0.371
58 | GCCAGTAA | -0.258
59 | ATTCCAAA | 0.116
60 | CGATAGAG | -0.0653
61 | CGCACTCA | -0.158
62 | GGCCGGCA | -0.184
63 | TGACCACA | -0.0512
64 | ACTTCTAG | -0.141
65 | AAACATAG | 0.291
66 | GAGGCCGA | -0.289
67 | CGTCAGGC | -0.0954
68 | CTCCCACC | -0.386
69 | CGTCTAGA | -0.229
70 | ACTTTATG | -0.00077
71 | TAATAGGA | 0.234
72 | GCGTACGA | 0.0253
73 | CCACGACG | -0.097
74 | CGTGCTCA | 0.133
75 | GATGCCAA | -0.0722

Row | Sequence | PBM E-score
76 | AATTGTGC | -0.0366
77 | CGGCCGCC | -0.216
78 | CCTATCGA | 0.0464
79 | ATAAGTAT | 0.0378
80 | AGACTCAC | -0.186
81 | CCGCTCCC | -0.362
82 | CAGGTTAG | -0.131
83 | CTTCGTTA | 0.0517
84 | ATATCTAG | -0.162
85 | AGGGTTTA | 0.235
86 | TCTTTAAA | 0.0801
87 | ATTGAGGG | -0.159
88 | CAGCGCCA | -0.125
89 | GTAGCGAA | -0.0184
90 | CAATTATC | 0.0595
91 | ATTCGCCG | -0.021
92 | CGCGTAAG | 0.369
93 | CGACACCA | -0.144
94 | ACACCAGA | 0.14
95 | CCAAGGGC | -0.285
96 | AAACGTTA | 0.16
97 | CGGAACCG | -0.137
98 | CCTTCCCC | -0.228
99 | CGTAACCA | 0.168
100 | CGCATGTC | 0.274

Row | Sequence | PBM E-score
101 | GATACATA | 0.32
102 | AATGGGAT | -0.192
103 | CACGAGAG | -0.119
104 | GACCTGAA | -0.176
105 | TCAGCTAA | -0.0407
106 | CTAATCTC | -0.119
107 | AGAACAAA | 0.269
108 | CGCGCGAG | -0.108
109 | CAGCTAGC | -0.224
110 | AAAGTGGG | -0.104
111 | AATTATAT | 0.224
112 | AATGGACT | -0.0807
113 | CTGACTGA | -0.294
114 | CGATCTCC | -0.206
115 | TTTAGAAA | 0.196
116 | CGGTTTAC | 0.231
117 | GCTCTATA | -0.068
118 | AGTCCTGA | -0.166
119 | GTTAGTCA | 0.0805
120 | ACTGCACC | -0.0877
121 | CACGCAAG | 0.182
122 | CGGGGACA | -0.183
123 | ATGATGGG | -0.0766
124 | AAACCCAT | 0.169
125 | GTTTGCCA | -0.00173

Row | Sequence | PBM E-score
126 | ACGAGACG | -0.13
127 | AACCGTGT | 0.334
128 | AGTGCCGG | 0.00138
129 | ATAGCAAG | 0.0707
130 | AGCTTGAT | -0.00237
131 | CACTAAGC | -0.161
132 | GCGTCAAC | 0.179
133 | CTTAAGAC | -0.0743
134 | ATGCGCTA | -0.0733
135 | CCGCGTAA | 0.426
136 | CATTGAGC | -0.131
137 | TAGTCAAA | 0.0135
138 | TTACGGAA | 0.122
139 | ACGGTCCT | -0.195
140 | CGAAGAGC | -0.12
141 | CGATCTTA | 0.0474
142 | CAACTCAA | 0.193
143 | AACGATAT | 0.162
144 | CGTAAAAG | 0.293
145 | CGATGCGC | -0.0492
146 | CTGAGGCA | -0.168
147 | AAAATCGA | -0.034
148 | GCGTCTGA | -0.103
149 | AAAATCCG | -0.0373
150 | ATACTATA | 0.00481

Row | Sequence | PBM E-score
151 | CGGATTCC | -0.137
152 | AGGTAACC | -0.0205
153 | ACACCAAA | 0.21
154 | GCACGTGC | 0.153
155 | GCTGGAAC | -0.179
156 | CGTCACGC | 0.0476
157 | AAAACAAA | 0.272
158 | AATAGTTG | 0.123
159 | GCATTTAC | 0.351
160 | CCCGATCC | -0.181
161 | CAGAGGTC | -0.231
162 | CTGATTCC | -0.264
163 | GAGGGCGA | -0.347
164 | AAGCACGA | 0.121
165 | CACGCCAC | 0.00859
166 | AGCCCACC | -0.319
167 | GGGAAAAA | -0.0815
168 | ACATTGAT | 0.249
169 | AGTTGCCC | -0.0979
170 | AAGGCAAG | -0.22
171 | AGGAAGTC | -0.212
172 | AAGTCAGT | -0.101
